In PubChem BioAssay AID1159614 (National Center for Advancing Translational Sciences (NCATS), 2016):
Screen size: about 45,000 compounds; about 65 (0.1%) were called active. The call rests on the fitted dose curve; in most records, active means well fitted activation curve with a large enough effect; inconclusive means small, poorly fitted or top-dose-only effect; inactive means no such curve, though single readings can be large or run the other way. This is one part of the list.

molecular target: Galactocerebrosidase (Homo sapiens) (UniProt P54803); assay: A Novel Cell-Based Assay to Identify Small Molecules for B -Galactocerebrosidase; details: 145M-Twi-hGALC-G270D cells, HMU-beta-Gal fluorescence, 48 h; series mostly up to 57.5 µM; activation: at the top concentration; further: 0% is about no effect; nearly all actives have a fitted effect of over 65% in size
Sequence of UniProt P54803 (P54803 whole entry, looked up): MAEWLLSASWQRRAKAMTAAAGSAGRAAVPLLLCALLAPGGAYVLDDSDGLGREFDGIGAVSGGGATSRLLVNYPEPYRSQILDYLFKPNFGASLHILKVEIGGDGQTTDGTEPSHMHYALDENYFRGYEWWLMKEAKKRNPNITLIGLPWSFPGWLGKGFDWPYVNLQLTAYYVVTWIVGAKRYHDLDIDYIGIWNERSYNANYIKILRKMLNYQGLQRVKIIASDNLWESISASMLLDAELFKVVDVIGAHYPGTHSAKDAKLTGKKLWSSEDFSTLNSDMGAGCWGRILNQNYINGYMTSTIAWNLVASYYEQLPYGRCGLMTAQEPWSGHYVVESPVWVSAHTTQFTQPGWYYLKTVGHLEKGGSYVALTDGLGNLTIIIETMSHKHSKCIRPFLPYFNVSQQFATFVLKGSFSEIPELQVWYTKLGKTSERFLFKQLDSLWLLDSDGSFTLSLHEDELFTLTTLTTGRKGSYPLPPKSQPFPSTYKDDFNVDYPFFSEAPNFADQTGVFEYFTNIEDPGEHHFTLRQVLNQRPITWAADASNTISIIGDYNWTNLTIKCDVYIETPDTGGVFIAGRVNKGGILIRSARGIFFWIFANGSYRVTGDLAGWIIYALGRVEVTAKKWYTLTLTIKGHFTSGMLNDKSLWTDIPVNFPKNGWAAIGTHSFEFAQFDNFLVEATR
Outline: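 qHTS, 1536-well; 145M-Twi-hGALC-G270D cells (WT line also made) in DMEM/F12 + 10% FBS; compound incubation on live cells; HMU-β-gal 0.1 mM final, pH 5.2, NaTC; carbonate stop; fluorescence increase = enhanced residual activity.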

activation, inactive:
COc1ccc(CCC(=O)NCc2ccc3c(c2)CCN3C(=O)c2ccccc2)cc1 -20.7%, CCC(Sc1nc(-c2ccc(F)cc2)nc2c1Cc1c(CO)cnc(C)c1O2)C(=O)Nc1ccc(F)cc1 (configuration not stated) -4.57%, COc1c(Cl)cc(C(=O)N(Cc2ccccc2F)C2CCS(=O)(=O)C2)cc1Cl (configuration not stated) -12%, COc1ccc(C(CNC(=O)c2ccc(F)cc2)N2CCCC2)cc1 (configuration not stated) 0.76%, Cn1c(=O)c2c(nc(SCC(=O)Nc3ccc(F)cc3)n2Cc2ccccc2F)n(C)c1=O -6.53%, Cc1cc(C)cc(NC(=O)N2CCC(CN3CCCCCC3)CC2)c1 1.71%, CCOc1ccc2nc(NC(=O)c3nc(SCc4ccccc4C)ncc3Cl)sc2c1 17.4%, CCC(=O)N1c2ccc(S(=O)(=O)CCC(=O)N3CCN(c4cc(C)ccc4C)CC3)cc2CC1C (configuration not stated) -7.02%, CCCSc1ncc(Cl)c(C(=O)Nc2c(C(=O)c3ccc(C)cc3)oc3ccccc23)n1 -7.63%, O=C(CSc1nc2nccnc2c(=O)n1CCc1c[nH]c2ccccc12)Nc1ccccc1 12.3%, COC(=O)c1c(NC(=O)/C(C#N)=C/c2ccc(OC)cc2)sc2c1CCC2 -17.7%, O=C1CN(/N=C/c2ccc([N+](=O)[O-])o2)C(=O)N1 -7.33%, O=C(NC1CC(=O)N(c2ccccc2)C1)C(c1ccccc1)c1ccccc1 (configuration not stated) -4.31%, CCc1ccc(C(=O)c2cn(CC(=O)Nc3cc(OC)ccc3OC)c3nc(C)ccc3c2=O)cc1 3.27%, Cc1c(CCNC(=O)c2ccc(Br)o2)sc2nc(-c3ccc(Cl)cc3)nn12 7.79%, Cc1ccc(C(=O)N2CCCCC2)cc1NC(=O)c1nsc2ccccc12 -12.1%, COc1ccc(S(=O)(=O)N2CCC(N3CCN(Cc4ccc(F)cc4)C(=O)C3=O)CC2)cc1 -21.4%, CC1=C(CC(=O)O)c2cc(F)ccc2/C1=C\c1ccc(S(C)(=O)=O)cc1 -7.28%, Cc1oc2cc3oc(=O)c(CC(=O)NCc4ccccc4)c(C)c3cc2c1C 3.91%, Cc1ccc(-n2c(=O)c3sc4ccccc4c3n(C)c2=O)cc1F -2.58%, COc1cccc(NC(=O)c2oc3ccccc3c2NC(=O)c2ccc(F)c(F)c2)c1 -11.2%, Cc1ccc(C)c(NC(=O)c2ccc3c(c2)CCCN3S(C)(=O)=O)c1 -14.3%, Cc1ccc(CNC(=O)CCc2c(C)nn(-c3ccc(N4CCOCC4)nn3)c2C)cc1 19.9%, O=C(NCC(c1cccnc1)N1CCN(c2ccccc2F)CC1)C(=O)Nc1ccc(F)cc1F (configuration not stated) -11.7%, COc1cccc(N2CCN(C(=O)C3CCCN(S(=O)(=O)c4cccc5nsnc45)C3)CC2)c1 (configuration not stated) -16.2%, CCOc1ccc(C(=O)c2cn(CC(=O)Nc3ccc4c(c3)OCO4)c3ccc(OC)cc3c2=O)cc1 -19.2%, O=C(CCn1c(=O)c2cccn2c2cccnc21)NCc1ccccc1Cl -3.18%, O=C(CSc1nc2ncccc2[nH]1)Nc1cc(F)ccc1F -15.6%, Cc1ccc(S(=O)(=O)c2cn(CC(=O)Nc3cccc(Cl)c3)c3ccccc3c2=O)cc1 3.85%, Cc1ccc(Cl)cc1NC(=O)CSc1nc2ccccc2c2nc(-c3ccccc3)nn12 2%, CCOC(=O)C1CCN(C(=O)c2nn(-c3ccc(OC)c(Cl)c3)c(=O)c3c2c2ccccc2n3C)CC1 4.23%, CCOc1ccc(C(=O)Nc2cc(-c3nc4cc(OC)ccc4o3)ccc2C)cc1[N+](=O)[O-] -11.5%, COc1ccc(OC)c(NC(=O)Cn2c(=O)c3cccn3c3ccccc32)c1 -14.8%, CCOc1ccc2c(c1)c(=O)c(C(=O)c1ccc(CC)cc1)cn2CC(=O)Nc1ccccc1OC -6.31%, O=C(Nc1cccc(Cl)c1)C1CCCN(c2nn3cc(-c4ccc(F)cc4)nc3s2)C1 (configuration not stated) -2.98%, CCn1c(=O)n(-c2ccc3c(c2)OCO3)c2nc(-c3ccc(C(C)C)cc3)nc(C(N)=O)c21 11.4%, O=C(COc1ccc2ccccc2c1)NC1CC(=O)N(c2ccc(F)cc2)C1 (configuration not stated) -11.6%, CCOc1ccccc1NC1(c2ccccc2)C(=O)c2ccccc2C1=O -15%, CC1CCCCN1CCCNC(=O)c1cc(Sc2cccc(Cl)c2)nc2ccccc12 (configuration not stated) -15.2%, Cc1ccccc1CN1c2ccccc2-c2nc(SCC(=O)c3ccccc3)ncc2S1(=O)=O -11.1%, O=C(Cn1cc(C(=O)C(F)(F)F)c2ccccc21)N1CCCCCC1 2.55%, CC1(C)N=C(SCc2ccc(F)cc2)c2ccccc2N1 -13.5%, CCNC(=O)c1ccc2c(c1)nc1n2CCCCC1 16.6%, Cc1ccccc1OCc1nc2c3cnn(-c4cccc(F)c4)c3ncn2n1 -12.2%, Cc1c(CNC2CCCCC2)c(C(=O)O)c(C)n1Cc1ccccc1F -9.59%, CC(=O)N1CCCc2cc(S(=O)(=O)N3CCN(c4ccccc4F)CC3)ccc21 -13.4%, COc1cccc(C2C(C(=O)Nc3ccc(Cl)cc3)=C(C)Nc3nc4ccccc4n32)c1OC (configuration not stated) 0.7%, Cc1ccc2c(c1)N(C(=O)N1CCC(C(=O)NCc3ccccc3C)CC1)CC(C)O2 (configuration not stated) -20%, CCCCNC(=O)c1ccc2c(c1)N(CC)C(=O)c1ccccc1S2 -11.4%, Cc1oc2ncn(CC(C)C)c(=O)c2c1C(=O)N(CCN(C)C)Cc1ccccc1 -16.4%, CCCCNC(=O)c1c(-c2ccccc2)c(-c2ccccc2)nn(C)c1=O -13.3%, CC(C)(C)C(=O)C(Oc1ccc(Cl)cc1)n1ccnc1 (configuration not stated) -15.8%, CCNC(=O)c1c(NC(=O)Cc2coc3ccc(CC)cc23)sc2c1CCCC2 -14.6%, CCCCNC(=O)CN1C(=O)c2cccnc2Sc2ccccc21 -20.8%, COc1ccc(C)cc1NC(=O)c1cc(S(=O)(=O)N2CCOCC2)cn1C -10.5%, O=C(CSc1nc(=O)[nH]c2c1CCCC2)NCc1ccccc1Cl -12.5%, CC1=C(C(=O)Nc2cccnc2)C(c2cccc(F)c2)n2nc(SCc3ccccc3F)nc2N1 (configuration not stated) -5.19%, NC(=NCCCCCCN=C(N)/N=C(\N)Nc1ccc(Cl)cc1)/N=C(\N)Nc1ccc(Cl)cc1 11%, CC(=O)N1c2ccc(S(=O)(=O)NCc3ccccc3Cl)cc2CC1C (configuration not stated) -31.1%, CCCc1nnc(NC(=O)c2cc(=O)c3ccccc3o2)s1 25.3%, COc1ccc(N2CCN(C(=O)C3CCCN(C(=O)c4cc5sccc5n4C)C3)CC2)cc1 (configuration not stated) -9.05%, CCOC(=O)c1c(C)n(-c2ccccc2)c2ccc(OC(=O)COc3ccccc3)cc12 -15%
